EP1780277A1 (YEDA RESEARCH AND DEVELOPMENT COMPANY, LTD., dated 2007)

Biological target: T1, flag-IR1B4 fusion protein, [35S]methionine-labeled in vitro translation product (human, UniProt Q99873, 35S-methionine label)
T1 construct: Translated in rabbit reticulocyte lysate; for one co-precipitation expressed in Cos-7 cells; also called IR1B4-flag; IRIB4-flag
Assay: GST pull-down of 35S-labeled in vitro translated protein, SDS-PAGE

B1: GST alone (other)
chain: not shown
notes: Control held on glutathione beads; also called Glutathione S-transferase
binding result: no binding
